Measured values published in PubChem BioAssay AID1347417 (National Center for Advancing Translational Sciences (NCATS), 2020).
The campaign covered roughly 120,000 compounds. About 5,300 (4.4%) were called active. The shares of active, inactive and inconclusive entries below differ from those in the screen. The call rests on the fitted dose curve; in most records, active means well fitted inhibition curve with a large enough effect; inconclusive means small, poorly fitted or top-dose-only effect; inactive means no such curve, though single readings can be large or run the other way. Potencies beside an inconclusive call are fits to weak or partial responses and may not hold up.

experiment: qHTS Primary assay for Inhibitors of Plasmodium falciparum Dd2 growth in vitro; further: nearly all actives have a fitted effect of over 65% in size;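 on activity, negative = inhibition: plate controls were DMSO vehicle for no effect and reference drug for full effect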; details: P. falciparum Dd2 growth, SYBR Green, 72 h; activity, negative = inhibition: at 28.9 µM (top of the series) unless noted; series mostly up to 28.9 µM
Procedure, shortened: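 Readout: SYBR Green fluorescence, 485 nm excitation, 535 nm emission, after ~16 h lysis at 37C. Before that, Dd2-infected red cells (2.5% hematocrit) grew 72 h with compound, 29 uM top final concentration.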
Potency means the concentration at half of the fitted maximal effect; tags describe the fitted curve by direction and shape.

Structure (SMILES) | Potency | activity, negative = inhibition
Cc1cc(C(=O)N2CCCC(CCc3c(F)cccc3F)C2)nc(C)n1 (stereo unspecified) | inconclusive: 17.8 µM [inhibitor, single point] | 
O=C1NCCC[C@@H]1NC(=O)[C@H]1CN(C(=O)NC2CCCCC2)CCN1S(=O)(=O)c1ccc(F)cc1 | inactive | 
COC(=O)[C@@H]1Cc2ncn(C(C)C)c2CN1S(=O)(=O)c1ccccc1 | inactive | 
CC(C)c1nn2c(=O)cc(COC(=O)c3cccc(NC(=O)COc4ccc(F)cc4)c3)nc2s1 | inconclusive: 17.8 µM [inhibitor, single point] | 
O=C(Cc1ccccc1)N1CCCCC1c1nc(CCOCC2CCOCC2)no1 (stereo unspecified) | inconclusive: 17.8 µM [inhibitor, single point] | 
CC(=O)N[C@H]1CC[C@]2(C)CC[C@@H](C(C)C(=O)NC3CCCC3)[C@H](O)[C@H]2[C@@H]1C (stereo partly specified) | inactive | 
Cc1cc2c(n1-c1ccc(C(=O)NCCc3ccc(Cl)cc3)cc1)CCCC2 | inconclusive: 14.1 µM [inhibitor, single point] | 
COc1ccccc1OCc1cc(C(=O)NC[C@H]2C[C@H]3C=C[C@H]2C32CC2)n[nH]1 | inconclusive: 17.8 µM [inhibitor, single point] | 
CN1C(=O)Cc2cc(C(=O)N3CCN(c4ccccc4Cl)CC3)ccc21 | inactive | 
CC(=O)N1CCCc2cc(S(=O)(=O)N3CCCC(C(=O)N4CCN(c5cccc(Cl)c5)CC4)C3)ccc21 (stereo unspecified) | inconclusive: 17.8 µM [inhibitor, single point] | 
OCc1ccc(-c2ccc3nnc(-c4ccccn4)n3n2)cc1 | inactive | 
Cc1ccc2c(CNCCc3ccccc3)c(C(=O)O)n(Cc3ccccc3C)c2c1 | inconclusive: 12.6 µM [inhibitor, partial curve, poor fit] | 
CN(CC1CCOC1)S(=O)(=O)c1ccccc1 (stereo unspecified) |  | inactive: 66.5% [at 5.79 µM]
COc1ccc(NC(=O)Cn2c(=O)n(-c3cc(C)cc(C)c3)c(=O)c3oc4ccccc4c32)cc1OC | inconclusive: 17.8 µM [inhibitor, single point] | 
CC(C)N1C(=O)C2(CCCC2)C1C(=O)NCc1ccccn1 (stereo unspecified) | inactive | 
Cc1noc([C@@H]2CN(C(=O)c3ccc(F)c(Cl)c3)C[C@H]2CO)n1 | inactive | 
O=C1N(CCc2ccccc2)c2ccccc2C12CCN([S+](=O)([O-])c1cccc(C(F)(F)F)c1)C2 (stereo unspecified) | inconclusive: 10 µM [inhibitor, single point] | 
Cc1ccc(C)c(N2CCN(C(=O)c3cn(CC(C)C)c(=O)c4c3c3ccccc3n4C)CC2)c1 | active: 2.51 µM | 
Cc1cccc(C(C(=O)NCc2cc(-c3cccc(F)c3)no2)N(C)C)c1 (stereo unspecified) | inactive | 
COc1ccc(Br)cc1C1C(C(=O)Nc2ccc(C)cc2C)=C(C)Nc2ncnn21 (stereo unspecified) | inconclusive: 0.112 µM [inhibitor, full curve, poor fit] | 
Cc1ccc(C)c(CSc2nc(-c3ccccc3F)nc3c2Cc2c(CO)cnc(C)c2O3)c1 | active: 8.91 µM | 

Structure (SMILES) | Potency | activity, negative = inhibition
CCCC1C=CCN1C(=O)c1cc(-c2ccncc2)nc2ccccc12 (stereo unspecified) | inconclusive: 14.1 µM [inhibitor, partial curve, poor fit] | 
CC(C)CC(=O)N[C@H](C)c1onc(-c2cccnc2)c1C(=O)O | inactive | 
COCCNC(=O)CCC(=O)NNc1nc2ccccc2c2nc(C)nn12 | inactive | 
O=C1Nc2ccccc2CC12CCN(CC1CCCCC1)C2 (stereo unspecified) | inconclusive: 2.51 µM [inhibitor, partial curve] | 
COc1ccccc1-c1ccc2ncc(Nc3cc(F)cc(N4CCOCC4)c3)n2n1 | inconclusive: 5.62 µM [inhibitor, single point] | 
CC(=O)N1CC(CO)C2(CCN(C3CCOCC3)CC2)C1 (stereo unspecified) | inconclusive: 8.91 µM [inhibitor, partial curve, poor fit] | 
COc1ccccc1OCCn1c(NC(=O)c2ccccc2Cl)nc2ccccc21 | inactive | 
COc1ccc(-c2ccnc(N[C@H]3CO[C@H]4[C@@H]3OC[C@@H]4NC(=O)Nc3cccc(C(F)(F)F)c3)n2)cc1 | inconclusive: 10 µM [inhibitor, partial curve, poor fit] | 
CNc1nccc(N2CCC(CC(=O)N(C)Cc3cn(C)nc3C)CC2)n1 | inconclusive: 17.8 µM [inhibitor, single point] | 
O=C(Nc1cccc(-c2ccc(N3CCOCC3)nn2)c1)Nc1ccc(F)cc1F | inconclusive: 3.98 µM [inhibitor, partial curve, poor fit] | 
Cc1cc(C)c(Nc2nc3ccccc3n3c(C)nnc23)c(C)c1 | inconclusive: 10 µM [inhibitor, single point] | 
CN(C)[S+](=O)([O-])c1ccc2c(c1)OCCN(Cc1ccc(F)cc1F)C2 | inconclusive: 15.8 µM [inhibitor, single point] | 
O=C(NCC1CCOCC1)c1ccc(C(F)(F)F)cc1 | inconclusive: 7.08 µM [inhibitor, partial curve] | 
CCc1noc(C)c1C(=O)N1CCC(CCC(=O)NCc2cccc(C(F)(F)F)c2)CC1 | inactive | 
Cc1nn(-c2ccccc2)c(C)c1[C@@H]1C=C[C@@H](NC(=O)c2ccc(N(C)C)cc2)C1 | inconclusive: 2.82 µM [inhibitor, partial curve, poor fit] | 
CCOc1ccc(Nc2oc(-c3ccc(COc4ccc(OC)cc4)o3)nc2C#N)cc1 | inconclusive: 17.8 µM [inhibitor, single point] | 
Cn1cccc1CN1CCC12Cc1ccccc1NC2=O (stereo unspecified) | inconclusive: 12.6 µM [inhibitor, single point] | 
COC(=O)c1ccc(Cl)cc1NC(=O)N1CC2CCCN2c2ccccc21 (stereo unspecified) | inconclusive: 10 µM [inhibitor, single point] | 
COCCNC(=O)[C@@H]1Cc2cn(Cc3ccncc3)c3cccc(c23)[C@H](CC(C)C)N1 | inconclusive: 14.1 µM [inhibitor, single point] | 
COc1cc2c(cc1Oc1cccc(N(C)C)c1)NC(=O)C21CCN(c2ncccn2)CC1 | inconclusive: 1.41 µM [inhibitor, partial curve, poor fit] | 
